In assay [1] the target is T1, human TACI, full length, on transfected 293EBNA cells (CA336) (human, UniProt O14836 1-293).
T1 construct: whole, on cells; also called huTACI
T1 sequence (looked up): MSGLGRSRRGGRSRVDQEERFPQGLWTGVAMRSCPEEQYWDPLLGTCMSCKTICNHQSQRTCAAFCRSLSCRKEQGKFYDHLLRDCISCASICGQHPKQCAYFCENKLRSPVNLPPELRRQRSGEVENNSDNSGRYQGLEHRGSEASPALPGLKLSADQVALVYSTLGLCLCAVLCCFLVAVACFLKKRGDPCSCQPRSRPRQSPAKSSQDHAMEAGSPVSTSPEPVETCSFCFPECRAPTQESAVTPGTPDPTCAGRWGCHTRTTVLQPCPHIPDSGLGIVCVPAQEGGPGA
Nature of the assay: FACS on 293EBNA cells co-transfected with huTACI and GFP, SAV-PE.

Assay [2] has as its target T2, hTACI:Fc (human, UniProt O14836 1-165, limits assumed).
T2 construct: not shown: Fc
T2 sequence (looked up): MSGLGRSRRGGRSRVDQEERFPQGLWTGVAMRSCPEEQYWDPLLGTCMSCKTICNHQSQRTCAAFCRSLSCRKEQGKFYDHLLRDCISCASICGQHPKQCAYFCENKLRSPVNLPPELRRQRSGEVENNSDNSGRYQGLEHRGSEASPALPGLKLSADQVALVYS
Nature of the assay: FACS competition: 200 ng/ml biotinylated BAFF preincubated with two-fold dilutions of the fusion protein, then BJAB cells.

B1: human recombinant soluble myc-BAFF (myc-huBAFF, […]) (ligand)
chain: not shown
modifications: biotinylated (sites not given) in the plate and FACS binding assays; not said to be biotinylated in the proliferation assay
notes: range […]; also called biotinylated myc-huBAFF; myc-hBAFF; not shown: myc tag
For the molecule B1, the binding result in assay [1] and in assay [2] was “binds” throughout.

These data come from US20040072188A1 (Biogen, published 2004).
